# Test results: PubChem BioAssay (Tox21)
# Values joined by “and” are separate entries in the source; they are usually repeats but may differ in a detail not shown here. Identical values can stand only once. Inconclusive means that the source gave no clear call. Such entries were picked first, then a sample of the others. For part of these data: Potencies of inconclusive entries are doubtful fits and often do not repeat. The source holds several records for some structures; these can differ, active in one and inactive in another. Active and inactive are the calls of the source. Unless noted, the call rests on the fitted dose curve; in most records, active means well fitted curve in the direction sought with a large enough effect in the repeat runs; inconclusive means weak or mixed curves; inactive means no such curve, though single readings can be large; an effect the other way counts as inactive or inconclusive.
# Experiments:
# [1] = qHTS assay for identifying genotoxic compounds that show differential cytotoxicity against isogenic chicken DT40 cell lines with known DNA damage response pathways - wild type cell line (AID 743012); conditions: DT40 wild type chicken cells viability, CellTiter-Glo, 40 h; activity change, negative = cytotoxicity: at 68.4 µM (top of the series) unless noted; further: nearly all actives have a fitted effect of over 60% in size; on activity change, negative = cytotoxicity: on the % scale 0 is the no-effect control and ±100 the full control effect
# In short: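 CellTiter-Glo luminescence readout of viability in wild type DT40 cells after 40 h compound exposure at 37 C/5% CO2; 300 cells/well; reagent incubated 30 min at room temperature before reading.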
# [2] = qHTS assay for identifying genotoxic compounds that show differential cytotoxicity against isogenic chicken DT40 cell lines with known DNA damage response pathways - Rev3 mutant cell line (AID 743014); conditions: chicken DT40 Rev3-/- viability, CellTiter-Glo, 40 h; activity, negative = cytotoxicity: at 68.4 µM (top of the series) unless noted; further: nearly all actives have a fitted effect of over 55% in size
# [3] = qHTS assay to identify small molecule antagonists of the thyroid receptor (TR) signaling pathway - cell viability counter screen (AID 743064); conditions: GH3.TRE-Luc viability, CellTiter-Fluor, 24 h; activity change, negative = cytotoxic: at 70.3 µM (top of the series) unless noted; further: nearly all actives have a fitted effect of over 50% in size
# In short: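 GH3.TRE-Luc rat pituitary cells carrying a TRE-luciferase reporter were treated with compound plus 1 nM T3 (final) for 23.5 h at 37 °C. Viability was then read in the same wells by CellTiter-Fluor fluorescence after a further 30 min.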
# [4] = qHTS assay to identify small molecule antagonists of the thyroid receptor (TR) signaling pathway (AID 743065); further: nearly all actives have a fitted effect of over 55% in size
# In short: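 GH3.TRE-Luc rat pituitary cells (two TREs driving luciferase) were dosed with compound, then stimulated with 1 nM T3 (final) for 23.5 h at 37 C. ONE-Glo luminescence was the read-out, with CellTiter-Fluor fluorescence as the cytotoxicity counter-screen.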
# [5] = molecular target: Estrogen receptor (Homo sapiens) (UniProt P03372); experiment: qHTS assay to identify small molecule agonists of the estrogen receptor alpha (ER-alpha) signaling pathway using the BG1 cell line (AID 743079); conditions: BG1Luc4E2 cells, ERE-luciferase agonist, 22 h; activation: at 70.3 µM (top of the series) unless noted; further: nearly all actives have a fitted effect of over 20% in size; on activation: on the % scale 0 is the no-effect control and ±100 the full control effect
# [6] = qHTS assay to identify small molecule antagonists of the estrogen receptor alpha (ER-alpha) signaling pathway using the BG1 cell line (AID 743080; calls by dose curve;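 further: BG1 cells stimulated with 17beta-estradiol alongside compound; nearly all actives have a fitted effect of over 25% in size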); conditions: BG1Luc4E2 ERE-luciferase antagonist mode, luminescence; activity change, negative = inhibition: at 70.3 µM (top of the series) unless noted
# In short: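 Quantitative HTS on the Tox21 10K library: BG1 cells with endogenous ER-alpha and ERE-luciferase reporter, 17beta-estradiol stimulation, 21.5 h compound exposure, luminescence endpoint with parallel fluorescence cytotoxicity counter-read.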
# [7] = qHTS assay to identify small molecule antagonists of the estrogen receptor alpha (ER-alpha) signaling pathway using the BG1 cell line - cell viability counter screen (AID 743081);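 further: compound given together with 17beta-estradiol as the ER stimulus; nearly all actives have a fitted effect of over 45% in size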
# [8] = qHTS assay to identify aromatase inhibitors - cell viability counter screen (AID 743084); conditions: MCF-7 aro ERE viability, CellTiter-Fluor, 24 h; activity change, negative = cytotoxicity: at 70.3 µM (top of the series);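 further: cells stimulated with testosterone during compound exposure; nearly all actives have a fitted effect of over 55% in size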
# [9] = qHTS assay for identifying genotoxic compounds that show differential cytotoxicity against isogenic chicken DT40 cell lines with known DNA damage response pathways - Rad54/Ku70 mutant cell line (AID 743015); conditions: DT40 Rad54/Ku70 mutant viability, CellTiter-Glo, 40 h; activity change, negative = cytotoxicity: at 66.8 µM (top of the series); further: nearly all actives have a fitted effect of over 60% in size; on activity change, negative = cytotoxicity: on the % scale 0 is the no-effect control and ±100 the full control effect
# [10] = molecular target: Androgen receptor (Homo sapiens) (UniProt P10275); experiment: qHTS assay to identify small molecule agonists of the androgen receptor (AR) signaling pathway (AID 743036; active means well fitted activation curve with a large enough effect in the signal ratio in the repeat runs, with a control signal flat, not every such curve was filed as active; inconclusive means weak or mixed curves, or effect the other way; inactive means no such curve, though single readings can be large or run the other way; the % refers to the signal ratio); conditions: HEK293 AR-UAS-bla GripTite, beta-lactamase FRET ratio, 16 h; activation: at 62.4 µM (top of the series) unless noted
# In short: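 HEK293 cells stably carrying a UAS-driven beta-lactamase reporter (GeneBLAzer AR-UAS-bla-GripTite) were plated at 2,000 cells/well, rested 4 h at 37C, then exposed to compounds in DMSO for 16 h. LiveBLAzer B/G FRET substrate was added for 2 h at room temperature; fluorescence read.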
# [11] = molecular target: Estrogen receptor (Homo sapiens) (UniProt P03372); experiment: qHTS assay to identify small molecule antagonists of the estrogen receptor alpha (ER-alpha) signaling pathway (AID 743069; active means well fitted curve in the direction sought with a large enough effect in the signal ratio in the repeat runs, not every such curve was filed as active; inconclusive means weak or mixed curves, or effect the other way; inactive means no such curve, though single readings can be large or run the other way; the % refers to the signal ratio; on activity, negative = inhibition: on the % scale 0 is the no-effect control and ±100 the full control effect); conditions: HEK293 ER-alpha-UAS-bla, beta-lactamase ratio, antagonist mode; activity, negative = inhibition: at 69.4 µM (top of the series) unless noted
# In short: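 Beta-lactamase FRET fluorescence is read after 2 hr at room temperature with LiveBLAzer B/G substrate. Before that, ER-alpha-bla HEK293 cells sit 4 hr after plating, then receive compound plus 17beta-estradiol and incubate 18 hr at 37C.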
# [12] = qHTS assay to identify small molecule antagonists of the androgen receptor (AR) signaling pathway - cell viability counter screen (AID 743033; further: nearly all actives have a fitted effect of over 45% in size); conditions: AR-bla HEK293 viability, CellTiter-Glo luminescence, 16 h; activity change, negative = cytotoxicity: at 58.5 µM (top of the series)
# [13] = system: thyroid hormone receptor (rat, GH3 cells); experiment: qHTS assay to identify small molecule agonists of the thyroid receptor (TR) signaling pathway (AID 743066; calls by dose curve); conditions: GH3.TRE-Luc cells, TR agonist luciferase, 24 h; activation: at 83.9 µM (top of the series) unless noted
# [14] = qHTS assay to identify small molecule antagonists of the estrogen receptor alpha (ER-alpha) signaling pathway - cell viability counter screen (AID 743074; calls by dose curve;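 further: HEK293 cells carrying ER-alpha-UAS-bla reporter stimulated with 17beta-estradiol; nearly all actives have a fitted effect of over 45% in size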)
# Aromatase (Homo sapiens) = Aromatase (Homo sapiens) (UniProt P11511); experiment: qHTS assay to identify aromatase inhibitors (AID 743083); further: nearly all actives have a fitted effect of over 55% in size
# Potency means the concentration at half of the fitted maximal effect; tags describe the fitted curve by direction and shape or compound fluorescence and quenching.
# Sequence of UniProt P03372 (P03372 whole entry, looked up): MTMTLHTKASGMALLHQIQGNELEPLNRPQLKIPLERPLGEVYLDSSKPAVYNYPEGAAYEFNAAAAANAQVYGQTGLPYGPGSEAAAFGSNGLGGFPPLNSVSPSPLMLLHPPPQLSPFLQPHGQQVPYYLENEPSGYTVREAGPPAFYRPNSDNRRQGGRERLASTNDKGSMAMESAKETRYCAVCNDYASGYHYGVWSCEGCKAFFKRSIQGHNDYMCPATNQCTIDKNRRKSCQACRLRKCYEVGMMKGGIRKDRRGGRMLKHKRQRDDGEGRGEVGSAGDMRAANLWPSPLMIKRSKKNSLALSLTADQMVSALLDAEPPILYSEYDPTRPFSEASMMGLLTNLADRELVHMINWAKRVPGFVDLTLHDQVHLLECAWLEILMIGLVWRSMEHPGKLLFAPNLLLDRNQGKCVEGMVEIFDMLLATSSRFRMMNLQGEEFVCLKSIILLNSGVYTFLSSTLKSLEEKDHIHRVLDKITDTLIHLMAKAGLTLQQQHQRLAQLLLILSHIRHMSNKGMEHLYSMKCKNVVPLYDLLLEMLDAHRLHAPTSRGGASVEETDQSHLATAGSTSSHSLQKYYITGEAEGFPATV
# Sequence of UniProt P11511 (P11511 whole entry, looked up): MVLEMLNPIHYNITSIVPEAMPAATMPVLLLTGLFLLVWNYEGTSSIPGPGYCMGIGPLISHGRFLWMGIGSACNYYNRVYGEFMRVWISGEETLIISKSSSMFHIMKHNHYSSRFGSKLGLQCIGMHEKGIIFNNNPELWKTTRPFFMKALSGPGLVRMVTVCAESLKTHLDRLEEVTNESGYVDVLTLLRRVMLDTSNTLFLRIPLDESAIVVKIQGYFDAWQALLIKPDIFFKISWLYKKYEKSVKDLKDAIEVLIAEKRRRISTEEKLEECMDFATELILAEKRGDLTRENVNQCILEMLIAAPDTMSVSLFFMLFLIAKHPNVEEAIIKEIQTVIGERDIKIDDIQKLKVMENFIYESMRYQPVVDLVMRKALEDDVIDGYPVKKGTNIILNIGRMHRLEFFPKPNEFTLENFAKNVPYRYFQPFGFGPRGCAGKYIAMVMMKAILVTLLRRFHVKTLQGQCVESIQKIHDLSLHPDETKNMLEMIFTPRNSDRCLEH
# Sequence of UniProt P10275 (P10275 whole entry, looked up): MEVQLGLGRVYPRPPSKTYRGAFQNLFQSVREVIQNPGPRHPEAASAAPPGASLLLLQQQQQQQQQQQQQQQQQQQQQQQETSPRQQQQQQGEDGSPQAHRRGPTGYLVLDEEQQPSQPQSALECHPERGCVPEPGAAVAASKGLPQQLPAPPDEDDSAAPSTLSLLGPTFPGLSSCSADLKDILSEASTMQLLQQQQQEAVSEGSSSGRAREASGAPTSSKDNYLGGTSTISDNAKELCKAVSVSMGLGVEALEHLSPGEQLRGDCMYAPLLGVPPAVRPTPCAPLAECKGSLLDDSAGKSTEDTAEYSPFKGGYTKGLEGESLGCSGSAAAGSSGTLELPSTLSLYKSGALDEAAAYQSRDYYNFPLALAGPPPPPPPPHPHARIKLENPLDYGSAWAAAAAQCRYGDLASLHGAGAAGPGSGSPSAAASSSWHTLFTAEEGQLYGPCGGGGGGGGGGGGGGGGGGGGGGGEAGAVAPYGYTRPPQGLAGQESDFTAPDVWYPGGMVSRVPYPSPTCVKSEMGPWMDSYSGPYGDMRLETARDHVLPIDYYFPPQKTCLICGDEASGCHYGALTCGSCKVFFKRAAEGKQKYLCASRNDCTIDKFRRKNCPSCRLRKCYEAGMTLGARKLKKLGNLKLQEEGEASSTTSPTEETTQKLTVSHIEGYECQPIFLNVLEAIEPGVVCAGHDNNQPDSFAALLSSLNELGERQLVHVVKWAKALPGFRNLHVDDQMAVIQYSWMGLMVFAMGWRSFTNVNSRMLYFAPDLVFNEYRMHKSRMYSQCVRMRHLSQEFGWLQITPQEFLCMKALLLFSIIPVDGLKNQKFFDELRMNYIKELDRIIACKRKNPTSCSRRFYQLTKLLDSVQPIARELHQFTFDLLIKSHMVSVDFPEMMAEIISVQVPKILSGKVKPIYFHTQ
smiles,measurement,setting,value
O=S1(=O)OC(c2ccc(O)cc2)(c2ccc(O)cc2)c2ccccc21,Potency,[1],"inconclusive: 61.1 µM [cytotoxic, partial curve]"
same,Potency,[2],"inconclusive: 61.1 µM [cytotoxic, single point]"
same,Potency,[3],"inconclusive: 26.6 µM [cytotoxic, partial curve, poor fit] and inconclusive: 68.6 µM [cytotoxic, single point]"
same,Potency,[4],"inconclusive: 54.5 µM [inhibitor, partial curve]"
same,Potency,[5],"active: 15 µM and inactive and inconclusive: 68.6 µM [activator, partial curve, poor fit]"
same,Potency,[6],"inconclusive: 30.6 µM [falling, partial curve]"
same,Potency,[7],active: 13.3 µM and active: 27.3 µM and active: 17.2 µM
same,Potency,[8],"inconclusive: 29.8 µM [cytotoxic, single point] and active: 27.3 µM"
NC(=O)c1cccc([N+](=O)[O-])c1,Potency,[1],inactive
same,Potency,[9],inactive
same,Potency,[10],"inconclusive: 1.09 µM [activator, single point]"
same,Potency,[11],inactive
same,Potency,[5],inactive
CCCCN(CCCC)C(=S)SSC(=S)N(CCCC)CCCC,Potency,[1],"inconclusive: 0.34 µM [rising, partial curve, poor fit]"
same,Potency,[9],inactive
same,Potency,[12],"inconclusive: 21.7 µM [cytotoxic, partial curve, poor fit]"
same,Potency,[3],"inconclusive: 0.241 µM [rising, single point]"
same,Potency,[13],"inconclusive: 13.5 µM [inhibitor, partial curve, poor fit]"
same,Potency,[14],"inconclusive: 21.7 µM [cytotoxic, partial curve]"
O=C1CCCN1CCO,Potency,[1],"inconclusive: 68.6 µM [cytotoxic, single point]"
same,Potency,[9],"inconclusive: 61.1 µM [cytotoxic, single point]"
same,Potency,[12],"inconclusive: 34.7 µM [cytotoxic, partial curve, poor fit]"
CCC(=O)C(=O)CC,Potency,[1],"inconclusive: 63.8 µM [cytotoxic, partial curve]"
same,Potency,[9],"inconclusive: 56.8 µM [cytotoxic, partial curve]"
same,Potency,[3],"inconclusive: 71.5 µM [cytotoxic, single point]"
same,Potency,[4],"inconclusive: 63.8 µM [inhibitor, partial curve]"
same,Potency,[13],inactive
c1ccc2sc(SSc3nc4ccccc4s3)nc2c1,Potency,[1],inactive
same,Potency,[9],inactive
CC(C)COCC(CN(Cc1ccccc1)c1ccccc1)N1CCCC1 (centres undefined),Potency,[1],active: 5.31 µM
same,Potency,[9],active: 7.5 µM
same,Potency,[12],inactive
same,Potency,[3],"inconclusive: 11.9 µM [cytotoxic, single point]"
same,Potency,[4],active: 10.6 µM
same,activation,[13],inconclusive: 1.6% [phenotype inactive]
same,Potency,[11],"inconclusive: 26.8 µM [activator, partial curve, poor fit]"
same,Potency,Aromatase (Homo sapiens),"inconclusive: 13.3 µM [inhibitor, partial curve, poor fit]"
same,Potency,[8],inactive
Cc1onc(-c2ccccc2)c1-c1ccc(S(N)(=O)=O)cc1,Potency,[1],"inconclusive: 29.8 µM [cytotoxic, partial curve, poor fit]"
same,Potency,[9],"inconclusive: 33.5 µM [cytotoxic, partial curve, poor fit]"
CCCCCC[C@@H](O)C/C=C\CCCCCCCC(=O)O,Potency,[1],"inactive and active: 29.8 µM and inconclusive: 68.6 µM [cytotoxic, single point]"
same,Potency,[9],"inconclusive: 33.5 µM [cytotoxic, single point]"
same,Potency,[12],inactive
same,Potency,[3],"inconclusive: 33.5 µM [cytotoxic, single point] and inconclusive: 68.6 µM [cytotoxic, single point]"
same,Potency,[4],"inconclusive: 68.6 µM [inhibitor, single point]"
same,activation,[13],inconclusive: -8.27% [phenotype inactive]
CC1=CC[C@@]23C[C@@H]1C(C)(C)[C@@H]2CC[C@H]3C,Potency,[1],inactive
same,Potency,[9],"inconclusive: 9.69 µM [cytotoxic, partial curve]"
N[C@@H](Cc1c[nH]c2ccccc12)C(=O)O,Potency,[1],"inconclusive: 48.6 µM [rising, partial curve, poor fit]"
same,Potency,[9],"inconclusive: 68.7 µM [cytotoxic, single point]"
same,Potency,[3],"inconclusive: 6.86 µM [rising, single point]"
same,Potency,[4],inactive
same,Potency,[14],"inconclusive: 43.6 µM [rising, partial curve, poor fit]"
same,Potency,[8],inactive
